About 12,000 (3.5%) of roughly 340,000 compounds were called active. The inconclusive results got no clear call from the source; some entries with a clear call stand among them for comparison. The call rests on the fitted dose curve; in most records, active means well fitted inhibition curve with a large enough effect; inconclusive means small, poorly fitted or top-dose-only effect, or another doubt; inactive means no such curve, though single readings can be large or run the other way. No potency is given beside an inconclusive call; the fits are too rough.
assay: qHTS Assay for Inhibitors of Hepatitis C Virus (HCV); details: Huh7.5.1 HCVcc-Cre (HCVcc is cell-culture hepatitis C virus) infection, luciferase reporter, 44 h; series mostly up to 41.8 µM
Method in brief: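 Seed cells (1,000/well) for 4 h; treat with compound and infect with HCVcc-Cre, moi about 0.5. Incubate 44 h, then detect luciferase activity.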
Potency means the concentration at half of the fitted maximal effect; tags describe the fitted curve by direction and shape.

| SMILES | Potency |
| --- | --- |
| CCN1C(=O)c2cccc3c(Cl)ccc1c23 | inconclusive [inhibitor, single point] |
| COc1cc(/C=C/C(=O)OCC(=O)Nc2ccccc2Sc2ccc(Cl)cc2)ccc1O | inconclusive [inhibitor, single point] |
| Cc1ccc(NC(=O)COc2ccc(N(C)S(=O)(=O)c3ccc(F)cc3)cc2)cc1 | inconclusive [inhibitor, single point] |
| COC(=O)CCC(C)C1CCC2C3CCC4CC(O)CCC4(C)C3=CC(=O)C12C (centres undefined) | inconclusive [inhibitor, single point] |
| CCN(CC)CCN(C(=O)c1ccc2c(c1)CCCC2)c1nc2cc(OC)c(OC)cc2s1 | inconclusive [inhibitor, full curve] |
| COc1ccc(CNC(=O)CCS(=O)(=O)c2ccc3c(c2)NC(=O)CS3)cc1 | inactive |
| O=C(CSc1ccc2nnc(-c3cccc(F)c3)n2n1)N1CCCc2ccccc21 | inconclusive [inhibitor, single point] |
| S=c1sc2c(Cl)ncnc2n1-c1ccccc1 | active: 3.98 µM |
| c1ccc(COC2CCCN(Cc3nc(-c4cnccn4)no3)C2)nc1 (centres undefined) | inactive |
| c1csc(-c2ncc3ccccn23)c1 | inconclusive [inhibitor, single point] |
| CCn1cc(C2=NOC(C(=O)Nc3cccc(C(C)=O)c3)C2)c(C)n1 (centres undefined) | active: 6.31 µM |
| Cc1ccc(S(=O)(=O)N2CCC(c3nc4c(nnn4Cc4ccccc4)c(=O)[nH]3)CC2)cc1 | inactive |
| O=C(CN1CCSC1=O)Nc1ccc(N2CCOCC2)cc1 | inactive |
| O=C(Cc1ccc(Cl)cc1)NCCS(=O)(=O)N1CCN(c2ccccc2F)CC1 | inconclusive [inhibitor, partial curve] |
| CCN(CC)Cc1c(O)ccc2c(=O)c(-c3ccc4c(c3)OCCO4)coc12 | inconclusive [inhibitor, partial curve] |
| CCOC(=O)c1c(NC(=O)c2ccc(S(=O)(=O)N3CCOCC3)cc2)sc2c1CCN(C)C2 | inconclusive [inhibitor, partial curve] |
| O=C1CCN(C(=O)c2cccs2)c2ccccc21 | inactive |
| CCOc1ccc(CNC(=O)CN2C(=O)C(c3ccccc3)Oc3cccnc32)cc1 (centres undefined) | inconclusive [inhibitor, partial curve] |
| CSCCC(NC(=O)c1ccccc1Cl)C(=O)N1CCN(C(c2ccccc2)c2ccccc2)CC1 (centres undefined) | inconclusive [inhibitor, partial curve] |
